The supplement of paper PMC4967469

Key:
Assay in all cases: Viability of human cancer cell lines after 72 h of drug (GDSC screen)
UNC1215 = compound: O=C(c1ccc(C(=O)N2CCC(N3CCCC3)CC2)c(Nc2ccccc2)c1)N1CCC(N2CCCC2)CC1 [UNC1215]; conditions: top dose 1 µM; top dose inferred
Description: (§1)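 Human cancer cell lines in 384-well plates, medium with 10% serum, drug for 72 h over a 256-fold dose range (nine 2-fold or five 4-fold steps up to the top dose). Adherent lines were fixed and stained with the nucleic acid dye Syto60, suspension lines read with resazurin; signal relative to control wells, capped at 0 and 100%. One two-parameter sigmoid per drug and line, fitted in a mixed model over all curves with the slope shared within a line.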

BMX-IN-1 (QL-XII-61) = compound: C=CC(=O)Nc1cc(-n2c(=O)ccc3cnc4ccc(-c5ccc(NS(C)(=O)=O)cc5)cc4c32)ccc1C [BMX-IN-1 (QL-XII-61)]; conditions: top dose 10 µM; top dose inferred
Description: as §1

OSI-027 = compound: COc1cccc2cc(-c3nc([C@H]4CC[C@H](C(=O)O)CC4)n4ncnc(N)c34)[nH]c12 [OSI-027]; conditions: top dose 20 µM
Description: as §1

Doxorubicin = compound: COc1cccc2c1C(=O)c1c(O)c3c(c(O)c1C2=O)C[C@@](O)(C(=O)CO)C[C@@H]3O[C@H]1C[C@H](N)[C@H](O)[C@H](C)O1 [Doxorubicin]; conditions: top dose 1.024 µM
Description: as §1

Dimethyloxalylglycine = compound: COC(=O)CNC(=O)C(=O)OC [Dimethyloxalylglycine]; conditions: top dose 4000 µM; top dose inferred
Description: as §1

VX-11e = compound: Cc1cnc(Nc2ccc(F)cc2Cl)nc1-c1c[nH]c(C(=O)N[C@H](CO)c2cccc(Cl)c2)c1 [VX-11e]; conditions: top dose 5.12 µM; top dose inferred
Description: as §1

17-AAG = compound: C=CCNC1=C2C[C@@H](C)C[C@H](OC)[C@H](O)[C@@H](C)/C=C(\C)[C@H](OC(N)=O)[C@@H](OC)/C=C\C=C(/C)C(=O)NC(=CC1=O)C2=O [17-AAG]; conditions: top dose 1 µM
Description: as §1

BIX02189 = compound: CN(C)Cc1cccc(N=C(c2ccccc2)c2c(O)[nH]c3cc(C(=O)N(C)C)ccc23)c1 [BIX02189]; conditions: top dose 20 µM; top dose inferred
Description: as §1

Vismodegib = compound: CS(=O)(=O)c1ccc(C(=O)Nc2ccc(Cl)c(-c3ccccn3)c2)c(Cl)c1 [Vismodegib]; conditions: top dose 10 µM; top dose inferred
Description: as §1

CCT018159 = compound: CCc1cc(-c2n[nH]c(C)c2-c2ccc3c(c2)OCCO3)c(O)cc1O [CCT018159]; conditions: top dose 10 µM; top dose inferred
Description: as §1

TG101348 = compound: Cc1cnc(Nc2ccc(OCCN3CCCC3)cc2)nc1Nc1cccc(S(=O)(=O)NC(C)(C)C)c1 [TG101348]; conditions: top dose 10.24 µM
Description: as §1

Row | Cell Line | AUC (UNC1215) | IC50 (UNC1215) | AUC (BMX-IN-1 (QL-XII-61)) | IC50 (BMX-IN-1 (QL-XII-61)) | AUC (OSI-027) | IC50 (OSI-027) | AUC (Doxorubicin) | IC50 (Doxorubicin) | AUC (Dimethyloxalylglycine) | IC50 (Dimethyloxalylglycine) | AUC (VX-11e) | IC50 (VX-11e) | AUC (17-AAG) | IC50 (17-AAG) | AUC (BIX02189) | IC50 (BIX02189) | AUC (Vismodegib) | IC50 (Vismodegib) | AUC (CCT018159) | IC50 (CCT018159) | AUC (TG101348) | IC50 (TG101348)
1 | MFM-223 (breast, adherent) | 0.985 | > 1 µM | 0.988 | > 10 µM | 0.79 | 8.84 µM | 0.989 | > 1.02 µM | 0.884 | > 4000 µM | 0.988 | > 5.12 µM | 0.724 | 0.267 µM | 0.931 | > 20 µM | 0.97 | > 10 µM | 0.959 | > 10 µM | 0.918 | > 10.2 µM
2 | COLO-668 (small cell lung carcinoma, adherent) | 0.988 | > 1 µM | 0.965 | > 10 µM | 0.778 | 8.09 µM | 0.557 | 0.0918 µM | 0.356 | 100 µM | 0.892 | > 5.12 µM | 0.881 | > 1 µM | 0.925 | > 20 µM | 0.989 | > 10 µM | 0.862 | 8.51 µM | 0.821 | 5.94 µM
3 | Hs683 (glioma, adherent) | 0.987 | > 1 µM | 0.987 | > 10 µM | 0.663 | 3.56 µM | 0.616 | 0.134 µM | 0.576 | 403 µM | 0.982 | > 5.12 µM | 0.461 | 0.0487 µM | 0.979 | > 20 µM | 0.979 | > 10 µM | 0.949 | > 10 µM | 0.904 | > 10.2 µM
4 | TT2609-C02 (thyroid, adherent) | 0.985 | > 1 µM | 0.985 | > 10 µM | 0.66 | 3.59 µM | 0.349 | 0.0237 µM | 0.282 | 57.5 µM | 0.846 | 4.09 µM | 0.385 | 0.0295 µM | 0.956 | > 20 µM | 0.98 | > 10 µM | 0.919 | > 10 µM | 0.807 | 5.69 µM
5 | HGC-27 (stomach, adherent) | 0.983 | > 1 µM | 0.97 | > 10 µM | 0.208 | 0.206 µM | 0.192 | 0.0094 µM | 0.459 | 197 µM | 0.965 | > 5.12 µM | 0.29 | 0.0178 µM | 0.956 | > 20 µM | 0.955 | > 10 µM | 0.844 | 5.61 µM | 0.849 | 5.99 µM
6 | IHH-4 (thyroid, semi-adherent) | 0.992 | > 1 µM | 0.931 | > 10 µM | 0.397 | 0.692 µM | 0.185 | 0.00962 µM | 0.392 | 135 µM | 0.902 | 4.3 µM | 0.452 | 0.0475 µM | 0.968 | > 20 µM | 0.955 | > 10 µM | 0.852 | 5.46 µM | 0.947 | > 10.2 µM
7 | KGN (ovary, adherent) | 0.978 | > 1 µM | 0.924 | > 10 µM | 0.131 | < 0.0781 µM | 0.194 | 0.00621 µM | 0.276 | 49.8 µM | 0.866 | > 5.12 µM | 0.905 | > 1 µM | 0.782 | 10.3 µM | 0.974 | > 10 µM | 0.899 | > 10 µM | 0.675 | 2.21 µM
8 | CGTH-W-1 (thyroid, adherent) | 0.966 | > 1 µM | 0.971 | > 10 µM | 0.795 | 9.25 µM | 0.506 | 0.0665 µM | 0.603 | 479 µM | 0.986 | > 5.12 µM | 0.315 | 0.0191 µM | 0.898 | > 20 µM | 0.966 | > 10 µM | 0.834 | 6.48 µM | 0.688 | 2.14 µM
9 | NCI-H2087 (lung adenocarcinoma, semi-adherent) | 0.984 | > 1 µM | 0.984 | > 10 µM | 0.65 | 3.37 µM | 0.465 | 0.0509 µM | 0.374 | 109 µM | 0.833 | 3.65 µM | 0.619 | 0.136 µM | 0.93 | > 20 µM | 0.984 | > 10 µM | 0.905 | > 10 µM | 0.936 | > 10.2 µM
10 | SW48 (large intestine, adherent) | 0.985 | > 1 µM | 0.904 | > 10 µM | 0.848 | 14.7 µM | 0.515 | 0.0702 µM | 0.797 | 1870 µM | 0.849 | 3.83 µM | 0.417 | 0.037 µM | 0.979 | > 20 µM | 0.985 | > 10 µM | 0.812 | 5.32 µM | 0.943 | > 10.2 µM
11 | BT-483 (breast, adherent) | 0.975 | > 1 µM | 0.965 | > 10 µM | 0.514 | 1.41 µM | 0.917 | > 1.02 µM | 0.926 | > 4000 µM | 0.973 | > 5.12 µM | 0.816 | > 1 µM | 0.965 | > 20 µM | 0.968 | > 10 µM | 0.975 | > 10 µM | 0.974 | > 10.2 µM

The IC50 comes from the fitted curve, where viability falls to half of the control; fits outside the tested doses are given as limits. The AUC spans the tested range (256-fold, ending at the top dose) of the same fit; values near 1 show little effect. For some assays here: The top dose, if marked as inferred, comes from the curve model; the source does not state it.
